# Article PMC12136788
# The list shows a part of the results.
# T1: UNK ZnF1-3 (human, UniProt Q9C0B0 31-174)
# T1 sequence: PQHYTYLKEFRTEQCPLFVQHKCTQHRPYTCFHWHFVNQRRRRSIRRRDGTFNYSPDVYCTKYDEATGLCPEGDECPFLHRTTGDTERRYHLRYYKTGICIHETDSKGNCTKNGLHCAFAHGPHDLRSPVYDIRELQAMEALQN
# B1: 59478537_59479167_1274_CDS_ENSMUSG00000025237_ENSMUST00000026267|mouse|control|control (ssRNA)
# RNA: GGGAGUUCUACAGUCCGACGAUCGUUCUUGCAGUGACCACUGACCAAAGGAGAAGUCCGUGCUGGGGGAGGGAGGCCCACGUGCUGGGGGCACAGGAGACCUGCCUGGGGGCUGGGGGGAUAGCCAAACACCUCUACUUUUGGCAACAGAGGAUUGAGCAUCA
# B2: chr11:126104937:126104938:+_ENSG00000197798_ENST00000360194|hu_mus|FALSE|FALSE (ssRNA)
# RNA: GGGAGUUCUACAGUCCGACGAUCCUUCCUGGGCUUUUUGGUGGGGGGUUCGCCAUCAUUGAAGAAUCCAAAAAUCUUGUUUUUAUCAGAGGCCUGGCUCCCUGUAGAAGCCAUCCAGUUUCGCGUCUGCUCCAAACGCCACCGCAACAGAGGAUUGAGCAUCA
# B3: 56362179_56362299_12499_CDS_ENSG00000151914_ENST00000244364|human|control|control (ssRNA)
# RNA: GGGAGUUCUACAGUCCGACGAUCAUGGACAUUAAGCUGCUCCUUGGCUGUUUCCGGUAAACCUCCCAGCGGUUUAGAUGCCAACAGAUGACGCUCCGUGUCAGUCAGCCACUGCUGCAAAUCCUCAAUUUCGCCAUGGAACCCCAACAGAGGAUUGAGCAUCA
# B4: chr6:86238017:86238018:-_ENSG00000135317_ENST00000369627|hu_mus|FALSE|FALSE (ssRNA)
# RNA: GGGAGUUCUACAGUCCGACGAUCCGGGUGCUGCACAAGUUUCUGCAGAUACUCCUGGAACUCCUCUCUCUUCGACUUCAAAAACUCAUAGUUUUUGGGGCCAAUGAUCCUUUUGGAUGGAAGCUGAGCAUCAGGAAAUGUGCCCAACAGAGGAUUGAGCAUCA
# B5: chr17:57652765:57652766:+_ENSG00000108406_ENST00000251241|hu_mus|FALSE|FALSE (ssRNA)
# RNA: GGGAGUUCUACAGUCCGACGAUCAUCAUAAUCAUAGUCAACAGACUCCGCCAUCUGAAAGAGCAGCUCGCAACUCUUCUCUAUCUCAAACUGGCCAGUCAGAAAAACUAAGAUGUCUCCAGCCAUUUCAUUCAAAUGAAUAUCCAACAGAGGAUUGAGCAUCA
# B6: chr7:54825262:54825263:-_ENSG00000132432_ENST00000352861|hu_hu|hu_hu_hu_mus_False|58_108 (ssRNA)
# RNA: GGGAGUUCUACAGUCCGACGAUCCUGACUUGGCUCAUCCACAAACUGCAUUACCUGAUCCAUGUUUGUUGGAUGGCACACCUAAAACGUAGAGACACGUAGCUCAGGAGAGAACCGAGCCCAACGGAACCGGAAGCUGGCAACCAACAGAGGAUUGAGCAUCA
# B7: 72060935_72062879_1136_CDS_ENSMUSG00000021076_ENSMUST00000021479|mouse|control|control (ssRNA)
# RNA: GGGAGUUCUACAGUCCGACGAUCGUCUUGCAAUGCUCCAAAAACAGCCCCUCCCAACCAGGCCACACAAUUAGCUUUUGCAGGUGGAGUAUGAAUUCGGAAGUUCUUGGUGCCAAGUGUCUUUUUGUACUUUGGCUUUUCUACCAACAGAGGAUUGAGCAUCA
# B8: 201284089_201284209_525_CDS_ENSG00000196141_ENST00000360760|human|control|control (ssRNA)
# RNA: GGGAGUUCUACAGUCCGACGAUCACGAAGUGCCUUUGAAGGUUCCUCAAGUAUCGAGAUCUUUUUCUCACGAGGGAUAAGGGCUGGUUUUUCGUUAGCAGAAUCUGUGGACGAGCUGUCCUUCUCGCAGCCAUUCAUGGGGCCCAACAGAGGAUUGAGCAUCA
# B9: chr14:90870812:90870813:+_ENSG00000198668_ENST00000553542|hu_mus|motif|central (ssRNA)
# RNA: GGGAGUUCUACAGUCCGACGAUCAUCAAUAUCUGCUUCUCUGAUCAUUUCAUCUACUUCUUCAUCUGUUAGCUUUUCUCCGGAGUUUGUCAUGACGUGGCGCAGUUCUGCCGCACUGAUGUAACCAUUCCCAUCCUUGUCAAACAACAGAGGAUUGAGCAUCA
# B10: chr3:57561382:57561383:-_ENSG00000168374_ENST00000303436|hu_hu|motif|central (ssRNA)
# RNA: GGGAGUUCUACAGUCCGACGAUCUAGCAGCACUGCAUCUCUCAAUUCAUCUACCAGAAGCAUUUUCUGCAGCUCAUCUGCGGCUUCCUGAAUUCUUUCACGAUCGUUGCUAUCUACCACAAAAAUAAGACCCUGGGUAUUCUGCAACAGAGGAUUGAGCAUCA
# B11: 106385328_106385530_742_CDS_ENSMUSG00000041506_ENSMUST00000047721|mouse|control|control (ssRNA)
# RNA: GGGAGUUCUACAGUCCGACGAUCCCGGUGUCCCGUGAAGGUGUACAGGUGCUGGCAGCUCUGGGCCUCCCAAAUGAGAAUGAGCUUGCUGCGGUCGCCAGAGGCGAGGUACUUGCCAUCAGAGGAGAUGGCCAUGCAGAGGACCAACAGAGGAUUGAGCAUCA
# B12: chr6:134305517:134305518:+_ENSG00000028839_ENST00000367871|hu_hu|FALSE|FALSE (ssRNA)
# RNA: GGGAGUUCUACAGUCCGACGAUCGUUACACACUGCCAGAACGUUAACAACCUUAAAAUCUGUAAAUAUUACCUGAAAACCUAGUUUCUGCAGACUACGGGCUAAGCGUCUGGCACCAAAUUUAGCUUCUUCUUCACUUGUUGCCAACAGAGGAUUGAGCAUCA
# B13: chr11:87793471:87793472:-_ENSMUSG00000020483_ENSMUST00000020775|mus_mus|mus_mus_mus_hu_False|58_58 (ssRNA)
# RNA: GGGAGUUCUACAGUCCGACGAUCUGGACUUGAAAAUAAAAGAAUAAGCUGGAUCCCCCACCCCCCCACAUUGUCAACCCUAUGCGAGAGUUUUGAAGGCGACUCAUGAAAAUCAGCAGCUCAAACGGCAAUGACCACCCCACCCAACAGAGGAUUGAGCAUCA
# B14: chr16:2814425:2814426:+_ENSG00000167978_ENST00000301740|hu_mus|FALSE|FALSE (ssRNA)
# RNA: GGGAGUUCUACAGUCCGACGAUCAGAUAGUUCUUUAUGCUCUGGAGAAACUUGUGGCCCACUCCAACAUGAAGCCACUGCAGGGGUUUCUGCUGCUUUUGAAGGCUGUGACUGGCUUUGGUCAAGAGCAGACAAUACAGCAGGCAACAGAGGAUUGAGCAUCA
# B15: chr6:108204272:108204273:-_ENSG00000025796_ENST00000369002|hu_mus|motif|central (ssRNA)
# RNA: GGGAGUUCUACAGUCCGACGAUCUUGCUCUCUAUCAGACUCCCUGUCACUACCAUCUUCUUUCUCACUCUGAGAAUCUCGGUUGGUUUCUUCCUCUUCAGAAUCACUGCCCUUGUCAGAAAUGUCGUCUUCUUCCUCCUUUAUCAACAGAGGAUUGAGCAUCA
# B16: 109701261_109701381_6649_CDS_ENSG00000148143_ENST00000277225|human|control|control (ssRNA)
# RNA: GGGAGUUCUACAGUCCGACGAUCGUCUUCCACUUCUUCAGCCGGGGUAGCUUUUUGGGAGGAGUGGUGGGAGUGUGAGGAGAGGAGACUGACGAUCCGUGGCCUGGGGAGGGUCAGGGCUUUUCCGUGGACCUUGAGGGAGUGCAACAGAGGAUUGAGCAUCA
# B17: 69843214_69843334_2800_3pUTR_ENSMUSG00000053477_ENSMUST00000078486|mouse|control|control (ssRNA)
# RNA: GGGAGUUCUACAGUCCGACGAUCCUAAGGAAUGGCUAAUGUCAUCACUUCGUUGCCAUCAGGACGUUUGCUGGUUUUGUUACGAGGGCAGCCGGGCUUCCCCUAUUCAAUAUCCGGUAAUUAGAAACACUAGCUGACGUGAAUCAACAGAGGAUUGAGCAUCA
# B18: 118948765_118948885_485_3pUTR_ENSG00000121578_ENST00000480814|human|control|control (ssRNA)
# RNA: GGGAGUUCUACAGUCCGACGAUCUUCCCUUCCCCAAAAUGAGGGUCUUAUGGAAAUUAGCCAUGAACUCCUUUGCUUUAGGAAUCUCUUGAAUGGCACCCACGAAGUAGUUACUGGUGGCCCACCCAACCACUGUCAGGCACACAACAGAGGAUUGAGCAUCA
# B19: chr10:71917581:71917582:-_ENSG00000079332_ENST00000373241|hu_mus|FALSE|FALSE (ssRNA)
# RNA: GGGAGUUCUACAGUCCGACGAUCCUCAACUUUGGAUUCCAUGAGACGAGAAUGAUCCGCACAGUCCACCAGAAAAACUAUGCCAUUAAUCGCUGGGAGAUAAUUUUUCCAAACGCGACGUGCUUGCUCAUGCCCACCGAGAUCCAACAGAGGAUUGAGCAUCA
# B20: chr12:39756943:39756944:-_ENSG00000139116_ENST00000544797|hu_mus|hu_hu_hu_mus_False|88_98 (ssRNA)
# RNA: GGGAGUUCUACAGUCCGACGAUCGGUUUGGCUGUUACCCCCGAGGGAAUCCUGUAGGAGUCUUGUCAGCUUAGAGUCUCUGUAAGGGACAUGGGUGGCUCUCUUGCUCUUGUCCCCCAAGGCGCUGAUUACAUUCCCAAGAGCCAACAGAGGAUUGAGCAUCA
# B21: chr7:54823571:54823572:-_ENSG00000132432_ENST00000352861|hu_mus|hu_hu_hu_mus_False|8_48 (ssRNA)
# RNA: GGGAGUUCUACAGUCCGACGAUCUCCCAUGAUAGCAAAUCCUAUAGCUGUAGCCAUGGCAAUCUUCUGGAAUUCUUUUCUGUCGGGUUUAGUGCAUCUUUUAACCAGCCGAAUUGAGUCCUUUACAAACUGCCGACUGGGCUCCAACAGAGGAUUGAGCAUCA
# B22: chr2:48034705:48034706:-_ENSG00000138081_ENST00000403359|hu_hu|motif|central (ssRNA)
# RNA: GGGAGUUCUACAGUCCGACGAUCCAUAGAAAGAACGUACAUACUGGGACAUGAGUACAGUUACAGCAAGUCUAGGUGUGCGGACAAAACAGGGCACAUUCAAGUACAGUAAGAUUUUGCUUGAAAUUAAAAACAAACUACAUGCAACAGAGGAUUGAGCAUCA
# Target: T1, UNK ZnF1-3
# Assay: nsRBNS (natural sequence RNA bind-n-seq); RBNS binding buffer (assumed for nsRBNS): 25 mM Tris pH 7.5, 150 mM KCl, 3 mM MgCl2, 0.01% Triton X-100, 500 ug/ml BSA, 20 U/ml SUPERase-In, 4 C; UNK is unkempt and MSI1 is Musashi-1; names of the RNAs are library labels; protein concentration not given here; high values mean tight binding
row,Binder,binding signal [enrichment R]
1,B1,1.62
2,B2,0.933
3,B3,1.05
4,B4,1.09
5,B5,1.23
6,B6,0.885
7,B7,0.826
8,B8,0.45
9,B9,0.572
10,B10,1.21
11,B11,1.4
12,B12,0.788
13,B13,2.05
14,B14,1.01
15,B15,0.409
16,B16,1.46
17,B17,0.762
18,B18,1.13
19,B19,1.21
20,B20,0.796
21,B21,0.705
22,B22,1.18
